{"source": "PubChem BioAssay AID2147", "about": "(National Center for Advancing Translational Sciences (NCATS), 2009)", "note": "Among all 230,000 compounds or so, about 3,600 (1.6%) were called active. The shares of active, inactive and inconclusive entries below differ from those in the screen. Calls come from the whole dose curve; as a rule, active = well fitted inhibition curve with a large enough effect (not every such curve was filed as active); inconclusive = small, poorly fitted or top-dose-only effect, or another doubt; inactive = no such curve, though single readings can be large or run the other way. Potencies of inconclusive entries are doubtful fits and often do not repeat."}
{"target": "Lysine-specific demethylase 4E (Homo sapiens) (UniProt B2RXH2)", "sequence (B2RXH2 whole entry, looked up, the tested form may be a part)": "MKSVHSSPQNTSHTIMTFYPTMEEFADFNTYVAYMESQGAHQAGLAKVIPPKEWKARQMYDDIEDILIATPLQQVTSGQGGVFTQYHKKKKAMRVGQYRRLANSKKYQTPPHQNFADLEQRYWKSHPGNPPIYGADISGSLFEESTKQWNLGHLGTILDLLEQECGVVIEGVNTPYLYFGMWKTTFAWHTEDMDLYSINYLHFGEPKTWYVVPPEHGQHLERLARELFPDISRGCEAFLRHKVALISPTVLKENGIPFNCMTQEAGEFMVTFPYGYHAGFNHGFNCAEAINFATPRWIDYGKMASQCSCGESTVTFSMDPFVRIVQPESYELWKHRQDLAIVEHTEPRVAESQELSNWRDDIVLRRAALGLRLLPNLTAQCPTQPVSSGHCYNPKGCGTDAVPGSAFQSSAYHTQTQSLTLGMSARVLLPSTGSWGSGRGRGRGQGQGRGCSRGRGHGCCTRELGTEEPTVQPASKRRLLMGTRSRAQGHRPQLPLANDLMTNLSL", "assay": "qHTS Assay for Inhibitors of Human Jumonji Domain Containing 2E (JMJD2E)", "conditions": "JMJD2E catalytic domain, FDH-coupled NADH fluorescence (FDH is formaldehyde dehydrogenase); series mostly up to 57.1 µM; activity change, negative = inhibition: at the top concentration"}
{"compound": "CCCCc1ccc(S(=O)(=O)NC2CCS(=O)(=O)C2)cc1", "note": "(centres undefined); note: nearly all actives have a fitted effect of over 50% in size; note: potency is the fitted concentration of half-maximal effect; tags give direction and shape of the fitted curve;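 for activity change, negative = inhibition: 0% = wells with enzyme and -100% = buffer wells without enzyme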", "Potency": "inconclusive: 35.5 µM [inhibitor, single point]"}
{"compound": "Cc1cc2c(=O)n(Cc3ccco3)c(SCC(=O)NCc3ccco3)nc2s1", "activity change, negative = inhibition": "inactive: 0.809%"}
{"compound": "Cc1cnc(NC(=O)c2cc3c(C)nn(-c4ccccc4)c3s2)s1", "Potency": "inconclusive: 35.5 µM [inhibitor, single point]"}
{"compound": "CCc1c2c(nc3ccc(OC)cc13)COC2", "Potency": "inconclusive: 28.2 µM [inhibitor, partial curve]"}
{"compound": "Cc1ccc(Cl)cc1N1CCN(CC(O)COCc2ccco2)CC1", "note": "(centres undefined)", "Potency": "inconclusive: 31.6 µM [inhibitor, single point]"}
{"compound": "CCc1nnc(N/N=C/c2cccs2)n1N", "Potency": "inconclusive: 0.708 µM [inhibitor, full curve]"}
{"compound": "N#Cc1cc2c(nc1SCc1ccccc1)CCCC2=O", "Potency": "inconclusive: 35.5 µM [inhibitor, single point]"}
{"compound": "CCC(C(=O)O)N1C(=O)/C(=C/c2cccn2C)SC1=S", "note": "(centres undefined)", "activity change, negative = inhibition": "inactive: -23.5%"}
{"compound": "Cc1ccc(S(=O)(=O)N(C)C)cc1NC(=O)c1ccncc1", "activity change, negative = inhibition": "inactive: 13.9%"}
{"compound": "CCN(CC)c1ccc(NC(=O)C2CC(=O)N(Cc3ccccc3)C2)cc1", "note": "(centres undefined)", "activity change, negative = inhibition": "inactive: -10.3%"}
{"compound": "COc1ccccc1NC(=O)CSc1nc2n[nH]c(C)c2c(=N)n1-c1ccccc1Cl", "Potency": "inconclusive: 35.5 µM [inhibitor, single point]"}
{"compound": "Cc1ccc2cc3c(NC(=O)c4ccco4)nn(CC(C)C)c3nc2c1", "Potency": "inconclusive: 22.4 µM [inhibitor, partial curve]"}
{"compound": "C#CCCCCCCCCCCCC(O)CC(O)COC(C)=O", "note": "(centres undefined)", "activity change, negative = inhibition": "inactive: 0.121%"}
{"compound": "NCCCCCCNS(=O)(=O)c1cccc2ccccc12", "Potency": "inconclusive: 28.2 µM [inhibitor, partial curve, poor fit]"}
{"compound": "CCOC(=O)C1CCN(C(=O)/C=C/c2cc(OC)c(OC)c(OC)c2)CC1", "Potency": "inconclusive: 31.6 µM [inhibitor, partial curve]"}
{"compound": "Cc1cc(C)c2c(c1)C1C=CCC1C(c1ccc(S(=O)(=O)N3CCOCC3)cc1)N2", "note": "(centres undefined)", "activity change, negative = inhibition": "inactive: 3.76%"}
{"compound": "Cc1ccc(-c2csc(NC(=O)C3CC(=O)N(Cc4ccco4)C3)n2)cc1", "note": "(centres undefined)", "activity change, negative = inhibition": "inactive: -1.81%"}
{"compound": "Cc1ccc2[nH]c(=O)c(CNC(C)C)cc2c1", "Potency": "inconclusive: 31.6 µM [inhibitor, partial curve]"}
{"compound": "Cc1ccc(-n2[nH]c(C)c(/C=N/n3c(C)nc4ccccc4c3=O)c2=O)cc1", "Potency": "inconclusive: 39.8 µM [inhibitor, single point]"}
{"compound": "O=C(Nc1ccc(Cl)cc1)C1c2cccc[n+]2CC(=O)N1Cc1ccc2c(c1)OCO2", "note": "(centres undefined)", "Potency": "inconclusive: 17.8 µM [inhibitor, single point]"}
{"compound": "COc1ccc2c(c1)O[C@H](c1ccc3c(c1)OCO3)[C@@H](OC(=O)N[C@H]1CCCc3ccccc31)C2=O", "Potency": "inactive"}
{"compound": "COc1cc(/C=C/C(C)=O)cc(OC)c1OC", "activity change, negative = inhibition": "inactive: -24.6%"}
{"compound": "CC(=O)CCC(=O)c1ccc2ccccc2c1", "Potency": "inconclusive: 28.2 µM [inhibitor, partial curve]"}
{"compound": "COC(=O)c1[nH]c2cc(OC)ccc2c1NC(=O)CCN1CCSCC1", "Potency": "inconclusive: 35.5 µM [inhibitor, single point]"}
{"compound": "COC(=O)c1ccccc1NC(=O)CN(C)S(=O)(=O)c1ccc(OC)c(C)c1", "activity change, negative = inhibition": "inactive: 5.02%"}
{"compound": "CN(C)CCCn1c(SCC(=O)Nc2nc(-c3cccc(Br)c3)cs2)nc2ccccc2c1=O", "Potency": "inconclusive: 25.1 µM [inhibitor, single point]"}
{"compound": "Cc1nc2c(C(=O)N3CCCCC3)cnn2c(C)c1Cc1ccccc1F", "Potency": "inconclusive: 25.1 µM [inhibitor, partial curve]"}
{"compound": "COC(=O)C1CCN(C(c2cc(OC)c(OC)c(OC)c2)c2sc3nc(C)nn3c2O)CC1", "note": "(centres undefined)", "activity change, negative = inhibition": "inactive: 6.18%"}
{"compound": "CC(C)c1nc2sc3ccccc3c(=O)c2c(=O)n1Cc1ccccc1", "Potency": "inconclusive: 39.8 µM [inhibitor, single point]"}
{"compound": "c1ccc(CCC2=NCCn3cccc32)cc1", "Potency": "inconclusive: 28.2 µM [inhibitor, partial curve]"}
{"compound": "Cc1ccc2c(CC(=O)OCc3cc(=O)n4c(n3)sc3ccccc34)coc2c1", "activity change, negative = inhibition": "inactive: -15.6%"}
{"compound": "Cc1ccc2nc(Cl)nc(-c3ccccc3)c2c1", "Potency": "inconclusive: 22.4 µM [inhibitor, partial curve]"}
{"compound": "COc1ccc(CC(=O)N2N=C(C)CC2(O)c2cccnc2)cc1OC", "note": "(centres undefined)", "Potency": "inconclusive: 39.8 µM [inhibitor, single point]"}
{"compound": "COc1ccc(-c2cc(=O)c3c(O)cc(O[C@H]4OC(COC5OC(C)C(O)C(O)[C@H]5O)C(O)C(O)C4O)cc3o2)cc1O", "note": "(some centres undefined)", "Potency": "inconclusive: 39.8 µM [inhibitor, single point]"}
{"compound": "COc1ccc2cc(CN(CCO)C(=O)c3ccc(Br)cc3)c(=O)[nH]c2c1", "Potency": "inconclusive: 39.8 µM [inhibitor, single point]"}
{"compound": "CN1CCN(c2ccc(NC(=O)c3sc4ccccc4c3Cl)cc2)CC1", "Potency": "inconclusive: 35.5 µM [inhibitor, single point]"}
{"compound": "COc1ccc(NC(=O)c2cc(Cl)ccc2NC(=O)c2ccco2)c(OC)c1", "Potency": "inconclusive: 35.5 µM [inhibitor, single point]"}
{"compound": "O=C(Nc1nc(-c2cccs2)cs1)c1ccc(S(=O)(=O)N2CCCC2)cc1", "Potency": "inconclusive: 39.8 µM [inhibitor, single point]"}
{"compound": "COc1ccc2[nH]c(=O)c(CN(C)C(=O)C3CCCCC3)cc2c1", "Potency": "inconclusive: 10 µM [inhibitor, partial curve]"}
{"compound": "CC1=C(C(=O)OCc2ccccc2)C(c2ccoc2)C(C#N)=C(N)O1", "note": "(centres undefined)", "Potency": "inconclusive: 25.1 µM [inhibitor, partial curve]"}
{"compound": "COc1ccc2cc(S(=O)(=O)n3cnc(C)c3)ccc2c1", "Potency": "inconclusive: 35.5 µM [inhibitor, partial curve]"}
{"compound": "COc1ccccc1C(c1nnnn1Cc1ccccc1)N1CCC(C(N)=O)CC1", "note": "(centres undefined)", "Potency": "inconclusive: 35.5 µM [inhibitor, single point]"}
{"compound": "COc1ccc2c(c1OC)C(=O)OC2", "Potency": "inconclusive: 31.6 µM [inhibitor, partial curve]"}
{"compound": "O=C(CCSCc1ccccc1Cl)N1CCN(c2ccccn2)CC1", "Potency": "inconclusive: 28.2 µM [inhibitor, partial curve]"}
